Hit rate of the full screen: of about 310,000 compounds, about 11,000 (3.5%) were called active. Inconclusive means that the source gave no clear call. Such entries were picked first, then a sample of the others. Calls come from the whole dose curve; as a rule, active = well fitted inhibition curve with a large enough effect; inconclusive = small, poorly fitted or top-dose-only effect, or effect the other way; inactive = flat fitted curve, though single readings scatter. No potency is given beside an inconclusive call; the fits are too rough.
test: VP16 counterscreen qHTS for inhibitors of ROR gamma transcriptional activity; conditions: Drosophila S2 Gal4-VP16 UAS-luciferase, luminescence, 20 h; activity, negative = inhibition: at 53.6 µM (top of the series);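 note: Gal4-VP16 expression switched on by copper sulfate through the metallothionein promoter; nearly all actives have a fitted effect of over 50% in size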
% is set by controls: 0 for no effect and ±100 for the full control effect; potency is the fitted concentration of half-maximal effect; tags give direction and shape of the fitted curve.

Structure (SMILES)	Potency	activity, negative = inhibition
N#Cc1c2n(c(=S)n(-c3ccccn3)c1=O)CCCCC2	inconclusive [activator, partial curve]	
CCn1c2ccccc2c2cc(C3C(C#N)=C(N)Oc4n[nH]c(COC)c43)ccc21 (stereo not given)	inconclusive [inhibitor, single point]	
COCC(=O)Nc1ccc(C)c(Cl)c1	inactive	
N#CC1=C(N)Oc2c(O)cc3ccccc3c2C1c1ccsc1 (stereo not given)	inconclusive [inhibitor, single point]	
COCCNC(=S)N1CCc2cc(OC)c(OC)cc2C1COc1cc(C)cc(C)c1 (stereo not given)	active: 22.4 µM	
CC1Sc2ccc(S(=O)(=O)N3CCC(C(=O)NCc4ccc(Cl)cc4)CC3)cc2NC1=O (stereo not given)	inconclusive [inhibitor, single point]	
CN1CC(c2ccccc2)C2(SC(=S)N(Cc3ccco3)C2=O)C12C(=O)Nc1ccccc12 (stereo not given)	inconclusive [inhibitor, single point]	
CCOC(=O)c1sc2nccc(N(C)C)c2c1N=CN(C)C	inactive	
COc1ccc(/C=N/n2c(-c3cccs3)n[nH]c2=S)cc1	inconclusive [inhibitor, partial curve]	
Cc1nnc(N/N=C/c2cccc(OCc3ccc(Cl)c(Cl)c3)c2)n1N	inconclusive [inhibitor, single point]	
CC1CCC(C(C)C)[C@H](OC(=O)c2ccccc2)C1 (stereo not given in full)	inactive	
CCc1nnc(NC(=O)CN2CCN(Cc3cccc(Cl)c3)CC2)s1	inconclusive [inhibitor, single point]	
CC(=O)Nc1ccc(NC(=O)CCCSc2nc3ccccc3[nH]2)cc1	inactive	
Cc1ccccc1NC1=NC(=S)N(c2ccccc2)C12CCOC(C)(C)C2 (stereo not given)	active: 17.8 µM	
CC(C)N=c1c([N+](=O)[O-])nn(C)n1O	inactive	
COc1ccc2c(c1)c(C1=C(c3c[nH]c4ccccc34)C(=O)NC1=O)cn2CCCN(C)C	inactive	
COc1ccccc1/C=C/C(=O)NC(=S)N(C)C1CCCCC1	active: 3.16 µM	
Cc1ccc2c(c1)[nH]c1c(N3CCN(Cc4ccccc4)CC3)ncnc12	active: 3.16 µM	
CCOCCCNC(=O)c1ccc2c(c1)N=C(CC)c1cc(Br)ccc1S2		inactive: -1.87% [at 10 µM]
S=C(NCc1ccccc1)NC1CCSc2ccccc21 (stereo not given)	inactive	
Cc1ccc(Cn2nnc3c(=O)n(CC(=O)c4ccccc4)cnc32)cc1	inactive	
CN(C)c1ccc(/C=C/c2ccc3c4ccccc4ccc3[n+]2-c2ccccc2)cc1	inconclusive [inhibitor, partial curve, poor fit]	
CC(=O)c1sc(N/N=C\c2cccc(Br)c2)nc1C	inconclusive [inhibitor, partial curve]	
c1coc(CNc2nc(N3CCCCC3)nc3ccccc23)c1	inconclusive [inhibitor, partial curve]	
COc1ccc(C(O)(CCC(C)C)C(CN2CCOCC2)c2ccc(Cl)cc2)cc1 (stereo not given)	inactive	

Structure (SMILES)	Potency	activity, negative = inhibition
CC(C)(C)c1ccc(C(=O)NC(=S)N2CCOCC2)cc1	active: 1 µM	
O=C(Nc1cccnc1)c1scc2c1OCCO2	inactive	
Cc1ccc2oc(-c3ccc(NC(=O)CC(C)C)cc3)nc2c1	active: 1.12 µM	
Cc1nn2c(NCc3ccccn3)c3c(nc2c1-c1ccccc1)CCC3	active: 0.562 µM	
COc1ccccc1N1CCN(C(=O)c2nn(-c3ccccc3OC)c(=O)c3ccccc23)CC1	inconclusive [inhibitor, single point]	
O=C(NNC(=S)NC(=O)c1cn(-c2ccccc2)nc1-c1ccccc1)c1ccncc1	active: 8.91 µM	
C=CCOc1ccc(NC(=O)C2CC(=O)N(C(C)C)C2)cc1 (stereo not given)	inconclusive [inhibitor, single point]	
CCCn1nc(C(=O)OCC(=O)c2ccc3c(c2)NC(=O)CO3)c2ccccc2c1=O	inconclusive [inhibitor, single point]	
Cc1nn(-c2ccccc2)c(Cl)c1C(=O)Nc1nnc(C2CCCCC2)s1	inconclusive [inhibitor, single point]	
Cc1ccc(NC(=O)COc2ccc(C3SCCS3)cc2)cc1	inconclusive [inhibitor, partial curve]	
O=S(=O)(c1ccccc1)N1CCC2(CCCN(c3ncccn3)C2)CC1	inactive	
Cc1c(N=NC2=C(O)CC(C)(C)CC2=O)c(=O)n(-c2ccccc2)n1C	inactive	
O=C(COC(=O)c1cccc(NS(=O)(=O)/C=C/c2ccccc2)c1)Nc1ccccc1OC(F)F	inactive	
COc1ccc(OC)c2c1cc(C(=O)N[C@H](C(=O)N1CCC[C@H]1C(=O)O)C(C)C)n2C	inactive	
NC(=S)N/N=C/c1ccccc1OC(=O)c1cc2ccccc2oc1=O	active: 7.08 µM	
Cc1ccc(NC(=O)c2ccc(Cl)c(NC(=O)c3cccs3)c2)cc1	inconclusive [activator, single point]	
CCOC(=O)c1c(C)[nH]c(N=Nc2ccccc2)c1C	inconclusive [inhibitor, single point]	
Cc1ccc(C)c(N2C(=O)c3cc(N4CCOCC4)c([N+](=O)[O-])cc3C2=O)c1	inconclusive [inhibitor, partial curve]	
COc1ccc(-c2cn3nc(SCC(=O)NC4CCCCC4)ccc3n2)cc1	inactive	
COc1ccc(/C=C2\CCc3ccccc3C2=O)cc1O	inconclusive [inhibitor, single point]	
O=C(Nc1nnc(-c2ccc(F)cc2)o1)c1cc(Cl)sc1Cl	active: 2.51 µM	
CC(=O)c1c(C(C)=O)c(C)n(-c2nc(-c3ccc(C)c(C)c3)c(C)s2)c1C	inconclusive [inhibitor, single point]	
COc1ccccc1CNc1cc(-c2ccccc2C(F)(F)F)ncn1	inactive	
Cc1cc(N/N=C/c2ccc(N(C)C)cc2)nc(NCc2ccccc2)n1	inactive	
CCOC(=O)CNC(=O)c1cc(C)oc1C	inconclusive [inhibitor, single point]	

Reference: PubChem BioAssay AID2546 (National Center for Advancing Translational Sciences (NCATS), 2010)
